Measured values reported in article PMC4336329 (PLoS ONE, 2015).
Screen size: about 310,000 compounds; about 14,000 (4.5%) showed an effect of 50% or more. Effects have a minus sign here. The list shows a part of the results.

target: human ether-à-go-go-related gene (hERG) potassium channel (human, UniProt Q12809); test: primary screen, population patch clamp on CHO cells stably expressing hERG
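Also: peak tail current of the secondary pulse compared with the same well before compound.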

Chain of human ether-à-go-go-related gene (hERG) potassium channel (Q12809 whole entry, looked up): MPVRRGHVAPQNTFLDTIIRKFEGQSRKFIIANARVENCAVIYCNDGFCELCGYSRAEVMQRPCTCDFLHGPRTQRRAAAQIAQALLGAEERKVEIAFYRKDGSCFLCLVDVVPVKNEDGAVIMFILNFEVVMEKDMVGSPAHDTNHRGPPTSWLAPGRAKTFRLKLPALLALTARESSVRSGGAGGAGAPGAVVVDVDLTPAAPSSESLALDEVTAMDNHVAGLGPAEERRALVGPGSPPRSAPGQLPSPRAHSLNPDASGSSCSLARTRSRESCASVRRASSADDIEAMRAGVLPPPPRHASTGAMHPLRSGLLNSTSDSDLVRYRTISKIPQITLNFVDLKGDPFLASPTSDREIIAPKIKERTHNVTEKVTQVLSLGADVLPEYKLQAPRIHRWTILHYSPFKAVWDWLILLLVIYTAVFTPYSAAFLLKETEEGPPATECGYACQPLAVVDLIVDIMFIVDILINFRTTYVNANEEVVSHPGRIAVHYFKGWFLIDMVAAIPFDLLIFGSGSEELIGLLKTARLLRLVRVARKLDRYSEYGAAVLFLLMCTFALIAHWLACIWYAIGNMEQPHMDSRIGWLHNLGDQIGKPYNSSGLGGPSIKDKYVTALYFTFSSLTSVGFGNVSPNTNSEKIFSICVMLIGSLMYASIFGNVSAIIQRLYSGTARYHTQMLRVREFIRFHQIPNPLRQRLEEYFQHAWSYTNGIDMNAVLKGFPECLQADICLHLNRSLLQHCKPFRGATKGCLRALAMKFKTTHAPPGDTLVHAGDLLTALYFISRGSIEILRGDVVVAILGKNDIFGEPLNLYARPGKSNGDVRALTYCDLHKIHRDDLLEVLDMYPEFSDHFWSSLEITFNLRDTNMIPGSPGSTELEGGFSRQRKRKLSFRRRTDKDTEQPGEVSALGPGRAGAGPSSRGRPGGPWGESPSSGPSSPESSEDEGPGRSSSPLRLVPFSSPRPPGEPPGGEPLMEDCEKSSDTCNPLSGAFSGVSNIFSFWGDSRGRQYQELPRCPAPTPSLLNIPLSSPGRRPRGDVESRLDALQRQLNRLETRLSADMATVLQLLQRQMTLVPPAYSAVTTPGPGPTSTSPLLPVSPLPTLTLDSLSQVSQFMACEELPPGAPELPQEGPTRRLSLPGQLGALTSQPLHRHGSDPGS

Structure (SMILES)	hERG current change (%, negative = inhibition) at 10uM
CN1CCN(c2nc(-c3cccnc3)nc3ccccc23)CC1	-48.5%
Cc1ccc2nc(NC(=O)CN(C)S(=O)(=O)c3cccc4nsnc34)sc2c1	24.9%
Cc1onc(-c2ccc(Cl)cc2Cl)c1-c1csc(COc2ccccc2)n1	0.985%
CCCCOc1cccc(/C=N/NC(=O)c2csc(C)c2C)c1	12%
COc1cc(O)c(C(CC(=O)N2CCN(c3ccccc3)CC2)c2cc(OC)c(OC)c(OC)c2)c(OC)c1 (stereo not drawn)	6.34%
Cc1noc(NS(=O)(=O)c2ccc(NC(=O)C(C)C)cc2)c1C	15.7%
CCCC(CCC)C(=O)Nc1cccc(-c2cn3c(n2)SCC3)c1	17.5%
Cc1cc(C)c(NC(=O)CS(=O)CC(=O)Nc2cccnc2)c(C)c1 (stereo not drawn)	14.6%
O=C(CCc1ccc(S(=O)(=O)NC2CCCCC2)cc1)NCc1ccccc1	-19%
O=C(CNCCc1ccc(Cl)cc1)Nc1ccc(C(=O)N2CCCCC2)cc1.O=C(O)C(=O)O	-13.4%
O=C(NNC(=O)C12CC3CC(CC(Cl)(C3)C1)C2)c1ccncc1	-6.12%
Cc1onc(-c2ccccc2)c1C(=O)N1CCN(S(=O)(=O)c2ccccc2Br)CC1	-1.99%
CCC(C)NC(=O)CNC(=S)N(CCCN1CCOCC1)Cc1cccs1 (stereo not drawn)	-14.4%
O=C(Nc1ccc(Oc2ccccc2)cc1)C1CC1	2.07%
CCCCn1c(N)c(N(CCC(C)C)C(=O)C(C)N2C(=O)c3ccccc3C2=O)c(=O)[nH]c1=O (stereo not drawn)	8.31%
COc1ccc(CNC(=O)C(c2ccncc2)N(C(=O)Cc2cccs2)c2ccc(C)cc2)cc1 (stereo not drawn)	-15.7%
Cc1cccc(C)c1OCC(=O)Nc1ccc2c(c1)C(=O)NC2=O	6.61%
O=S(=O)(NCc1ccncc1)c1ccc(S(=O)(=O)NCC2CCCO2)cc1 (stereo not drawn)	-12.2%
O=C1C(=O)N(Cc2cccnc2)C(c2ccccn2)/C1=C(/O)c1ccccc1 (stereo not drawn)	5.51%

Structure (SMILES)	hERG current change (%, negative = inhibition) at 10uM
O=C(CCN1C(=O)S/C(=C\c2ccccc2)C1=O)NC1CCS(=O)(=O)C1 (stereo not drawn)	5.47%
COc1ccccc1C(CNC(=O)c1ccc(S(=O)(=O)NCc2ccco2)cc1)N(C)C (stereo not drawn)	-4.73%
Cc1cc(OC(=O)C2CC2)c([N+](=O)[O-])c(=O)[nH]1	12.7%
CC(C)C(=O)N1CCN(c2ccc(NC(=S)NC(=O)c3cc4ccccc4o3)cc2)CC1	1.26%
CCNC(=S)NNC(=O)c1cccc(Br)c1	15.4%
O=c1cc(-c2ccccc2Cl)oc2c([N+](=O)[O-])c(O)cc(O)c12	8.63%
COc1ccc(C(=O)N2CCN(c3ccc([N+](=O)[O-])c(-n4nc(C)cc4C)c3)CC2)cc1	-78.2%
Cc1cccc(NC(=O)CC2SC(=O)N(c3ccccc3)C2=O)c1 (stereo not drawn)	17.8%
CCOc1ccc(NS(=O)(=O)c2ccc(C(=O)N3CCN(c4ncccn4)CC3)cc2)cc1	-11.4%
CC(CCc1ccc(O)cc1)NC1C2CC3CC(C2)CC1C3 (stereo not drawn)	-25.6%
S=C(c1ccccc1)N1CCCC1	17.7%
O=C(NCCN1CCOCC1)c1cc2n(n1)C(C(F)(F)F)CC(c1ccc(F)cc1)N2 (stereo not drawn)	6.47%
O=C(Nc1ccc(F)cc1)Nc1cccc(Br)c1	8.42%
O=C(Nc1cccnc1)c1ccccc1Cl	-7.14%
CCc1ccc(C(C)NC(=O)Cn2cnc3c(=O)n(C)c(=O)n(C)c32)cc1 (stereo not drawn)	-17.8%
COc1ccc(-n2c(CCc3ccccc3)n[nH]c2=S)cc1	14.3%
COCCNC(=O)/C(C#N)=C/c1ccc(-c2ccc(OC)cc2[N+](=O)[O-])o1	-15%
CCOC(=O)c1[nH]c2ccc(Cl)cc2c1NC(=O)c1nonc1C	10.1%
N#C/C(=C\c1ccc(C(=O)O)cc1)S(=O)(=O)c1cc(Br)ccc1Br	8.97%

Structure (SMILES)	hERG current change (%, negative = inhibition) at 10uM
NC(=O)c1ccc(-c2ncc(-c3ccccc3)o2)cc1	-1.24%
Cc1ccc(CCN2CC(C(=O)NCCCN3CCOCC3)CC2=O)cc1 (stereo not drawn)	22.2%
O=c1[nH]c(/C=C2\C=Nc3ccccc32)c(O)n1Cc1ccccc1F	10.1%
Cc1cc(S(=O)(=O)Nc2cccc(C(=O)O)c2)c(C)c(S(=O)(=O)c2ccc(Cl)cc2)c1	18.8%
CSc1ncccc1C(=O)Nc1nc2ccc(Oc3ccccc3)cc2s1	12.6%
CCCC(=O)c1c(NC)cc(C)oc1=O	11.2%
CCN1CCN(CCC(=O)Nc2ccccc2C)CC1	-17.7%
CCOc1ccccc1N1CCN(C(=O)c2cccc(-c3ccc(O)cc3)c2)CC1	4.89%
CCc1ccc(NC(=S)NCc2ccccc2)cc1	3.91%
CCOC(=O)CN1C(=O)NC(C)(c2ccc(OC(F)F)cc2)C1=O (stereo not drawn)	-11.5%
Cn1cccc1/C=N/NC(=O)c1cccs1	12.1%
O=C(O)CC(CC(=O)O)c1ccsc1	4.05%
O=C(N/N=C1\SCC(=O)N1CCc1ccccc1)c1cccs1	-1.71%
O=C(NCc1cccs1)c1ccc(Cl)s1	-5.32%
COc1ccccc1C(=O)NCCC(=O)Nc1cccnc1	14.7%
C[C@H](NC(N)=O)C(=O)Nc1ccc2c(c1)OCO2	4.84%
Cc1ccc(Cn2c(SCC(=O)NCC3CCCO3)nc3ccsc3c2=O)cc1 (stereo not drawn)	-30.1%
Cc1ccc(NC(=S)N2CCN(C(=O)c3ccccc3)CC2)c(C)c1	7.14%
COc1ccc(CCNCc2cccc(C(F)(F)F)c2)cc1OC.O=C(O)C(=O)O	0.584%
